Self-cleavage data for 34 variants are collected here from the RNAGym collection of RNA variant scans (doi:10.1093/nar/gkz1192).

The source gives no read counts; variants with many changes may rest on few reads.

B1: CPEB3 Ribozyme (parent)
chain: UAACAGGGGGCCACAGCAGAAGCGUUCACGUCGCAGCCCCUGUCAGAUUCUGGUGAAUCUGCGAAUUCUGCUGUAUAUCUC

This series covers variants of B1. As to the kind of experiment: self-cleavage, relative activity (ratio to wild type); higher = more cleavage; in vitro, sequencing. The essentials:
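After error-prone PCR and barcoding, CPEB3 ribozyme mutant libraries were transcribed with T7 RNA polymerase at 37°C for 5 hours, then given 15 min with DNase I before an EDTA stop, and they cleaved during both steps. Reverse transcription with template switching preceded Illumina sequencing. Relative activity divides a variant's cleaved/total read fraction by the unmutated ribozyme's. At least 5 reads were required per variant, and three batches were averaged.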
In the case of UAACAGGGGGCCACAGCAGAGGCGUCCACGUCGCAGCCCCUGUCAGAUCCUGGUGAAUCUGCGAAUUCUGCUGUAUAUCUC [A21G U26C U49C], the self-cleavage worked out at 0.15.

Take UAACAGGGGGCCACAGCAGAGGCGUCCACGUCGCAGGCCAUGUCAGAUUCUGGUGAAUCUGCGAAUACUGCUGUAUAUCUC [A21G U26C C37G C40A U67A]: the self-cleavage was found to be 0.07.

With UAACAGGGGGCCACAGCAGAGGCGUCCACGUCGCAGCCCCUGUCAGACUCUGGUGAAUCUGCGAAUUCUGCUGUAUAUCUC [A21G U26C U48C], the self-cleavage amounted to 0.29.

On to UAACAGGGGGCCACAGCAGAGGCGUUCACGCCGCAGCCCCUGUCAGACUCUGGUGAAUCUGCGAAUUCUGCUGUAUACCUC [A21G U31C U48C U78C], for which the self-cleavage was 0.11.

As to UAACAGGGGGCCACAGCAGAGGCGUCCACGUCGCAGCUCCUGUCAGAUUCUGGUGGAUCUGCGAAUUCUGCUGUGUAUCUC [A21G U26C C38U A56G A75G], the self-cleavage was 0.04.

Consider UAACAGGGGGCCACAGCAGAGGCGUCCACGUCCCAGCCCCUGUCUGAUUCUGGUGAAUCUGCGAAUUCUGCUGUAUAUCUC [A21G U26C G33C A45U], for which the self-cleavage stood at 0.06.

As for UAACAGGGGGCCACAGCAGAGGCGUUCACGACGCAGCCCCUGUCAGAUUCUGGUGAAUCUACGAAUUCUGCUGUAUACCUC [A21G U31A G61A U78C], the self-cleavage was 0.15.

As to UAACAGGGGGCCACAGCAGAGGCGUCCACGUCGCAGCCCCCGUCAGAUUCAGGCGAAUCUGCGAAUUCUGCUGUUUAUCUC [A21G U26C U41C U51A U54C A75U], the self-cleavage amounted to 0.33.

Regarding UAACAGGGGGCCACAGCAGAGGCGUUCACGCCGCAGCCCCUGUCAGAUUCUGGCGAAUCUGCGAAUUCUGCUGUUUAUCUC [A21G U31C U54C A75U], the self-cleavage came out at 0.3.

With UAACAGGGGGCCACAGCAGAGGCGUCCACGUCGCAGCCCCUGUCAGAUUCUGGUGAAUCUGCGGGUUCUGCUGUAUAUCUC [A21G U26C A64G A65G], the self-cleavage is 0.23.

UAACAGGGGGCCACAGCAGAGGCGUUCACGCCGCAGCCCCUGUCAGAUUCUGGUGAAUCUGCGAAUCGUGCUGUAUAUCUC [A21G U31C U67C C68G]: the self-cleavage is 0.06.

For UAACAGGGGGCCACAGCAGAGGCGUUCACGCCGCAGCCCCUGUCAGAUUCCGGUGAGUCUGCGAGUUCUGCUGUAAAUCUC [A21G U31C U51C A57G A65G U76A], the self-cleavage worked out at 0.05.

In the case of UAACAGGGGGCCACAGCAGAGGCGUCCACGUCGCAGGCCCCGUCAGAUUCUGGCGAAUCUGCGAGUUCUGCUGUAAAUCUC [A21G U26C C37G U41C U54C A65G U76A], the self-cleavage turned out to be 0.

Regarding UAACAGGGGGCCACAGCAGAGGCGUCCACGUCGCGGCCCCUGUCAGGUUCUGGUGAAUCUGCGAAUUCUGCUGUAUAUCUC [A21G U26C A35G A47G], the self-cleavage stood at 0.46.

Turning to UAACAGGGGGCCACAGCAGAGGCGUCCACGUCGCAGCCCCUGUCAGACUCUGGUGAAUCUGCGAAUUCUGCCGUAUAUCUC [A21G U26C U48C U72C], the self-cleavage was 0.23.

For the variant UAACAGGGGGCCACAGCAGAGGCGUUCACGACGCAGCCCCUGUCAGAUUCUGGAGAAUCUGCCAAUUCUGCUGUAUACCUC [A21G U31A U54A G63C U78C], the self-cleavage came to 0.26.

For UAACAGGGGGCCACAGCAGAGGCGUUCACGCCACAGCCCCUGUCAGAUUCUGGUGAAUCUGCGAAUUCUGCGGUAUAUCUC [A21G U31C G33A U72G], the self-cleavage turned out to be 0.05.

As to UAACAGGGGGCCACAGCAGAGGCGUGCACGUCGCAGCCCCUGUCAGAUUCUGGUGAAUCUGCGAAUUCUGCUGUAUACCUC [A21G U26G U78C], the self-cleavage came out at 0.16.

With UAACAGGGGGCCACAGCAGAGGCGUUCACGACGCAGCCCCUGUCAGAUUCUGGUGAAUCUGCGGUUUCUGCUGUAUAUCUC [A21G U31A A64G A65U], the self-cleavage turned out to be 0.15.

For the variant UAACAGGGGGCCACAGCAGAGGCGUCCACGUCGCAGCCCCUGUCAGAUUGUGGAGAAUCUGCGAAUUCUGCUGUAUAUCUC [A21G U26C C50G U54A], the self-cleavage was 0.09.

As for UAACAGGGGGCCACAGCAGAGGCGUUCACGCCGCGGCCCCUGUCAGAUUCUGGUGAAUCUGCGAAUUCUGCUGUAUAUCUC [A21G U31C A35G], the self-cleavage was 0.32.

Turning to UAACAGGGGGCCACAGCAGAGGCGUUCACGCCGCUGCCCCUGUCAGAUUCUGGUGAAUCUGCGAAUUCUGCUGUAUAUCUC [A21G U31C A35U], the self-cleavage was 0.22.

As for UAACAGGGGGCCACAGCAGAGGCGUGCACGUCGCAGCCCCUGUCAGAUUCAGGUGAAUCUGCGAAUUCUGCUGUAUAUCUC [A21G U26G U51A], the self-cleavage stood at 0.16.

Take UAACAGGGGGCCACAGCAGAGGCGUCCCCGUCGCGGCCCCUGUCAGAUUCUGGUGAAUCUGCGAAUUCUGCUGUAUAUCUC [A21G U26C A28C A35G]: the self-cleavage is 0.26.

As for UAACAGGGGGCCACAGCAGAGGCGUUCACGACGCAGCCCCGGUCAGAUUCUGGUGAAUCUGCGAACUCUGCUGUAUACCCC [A21G U31A U41G U66C U78C U80C], the self-cleavage was determined as 0.08.

Turning to UAACAGGGGGCCACAGCAGAGGCGUUCACGCCGCAGCCCCUGUCUGAUUCUGGUGAAUAUGCGAAUUCUGCUGUAUAUCUC [A21G U31C A45U C59A], the self-cleavage was determined as 0.08.

UAACAGGGGGCCACAGCAGAGGCGUUCACGACGCAGCCCCUGUCAGAUUCUGGUGAAUCUGCGAAUUCUGCUGUAUAACUC [A21G U31A U78A]: the self-cleavage was 0.41.

For the variant UAACAGGGGGCCACAGCAGAGGCGUCCACGUCGCAGCCCCUGUCAGAUUCUGGUGUAUCUGCGAACUCCGCUGUAUAUCUC [A21G U26C A56U U66C U69C], the self-cleavage was 0.11.

Turning to UAACAGGGGGCCACAGCAGAGGCGUUCACGCCGCAGCCCCUGUCAGAUUCUGGCGAAUCUGCGAGUUCUGCUGUAUAUCUC [A21G U31C U54C A65G], the self-cleavage was determined as 0.13.

Take UAACAGGGGGCCACAGCAGAGGCGUCCACGUCGCAGCCCCAGUCAGAUCCUGGUGAAUCUGCGAAUUCUGCCGUAUAUCUC [A21G U26C U41A U49C U72C]: the self-cleavage was determined as 0.31.

Consider UAACAGGGGGCCACAGCAGAGGCGUUCACGCCGCAGCCCCAGUCGGAUUCUGGUGAAUCUGCGAAUCCUGCUGUUUAUCUC [A21G U31C U41A A45G U67C A75U], for which the self-cleavage stood at 0.05.

For UAACAGGGGGCCACAGCAGAGGCGUCCACGUCGCAGCCCCUGUCAGAUUCUGGUGAAUCUGUGAAUUCUGCCGUAUAUCUC [A21G U26C C62U U72C], the self-cleavage was 0.1.

Regarding UAACAGGGGGCCACAGCAGAGGCGUUCACGACGCAGCCCCUGUCAGAUUCUGGUGAAUCUGCGAGUUCUGCUGUAUAUCUC [A21G U31A A65G], the self-cleavage was found to be 0.22.

With UAACAGGGGGCCACAGCAGAGGCGUCCACGUCGCAGCCCCUGUCUGAUUCUGGUGAAUCUGCGAAUUCUGCUGUAUAUCUC [A21G U26C A45U], the self-cleavage turned out to be 0.19.
